Data published in the BET-seq Pho4 binding data (Le et al. 2018).
The list shows a part of the results. The energies were worked out here from pooled read counts, against the library average; single values are noisy.

target: T1, Pho4 (S. cerevisiae) (UniProt P07270); assay: relative binding free energy (BET-seq); higher = weaker binding; conditions: reference: library average
T1 sequence: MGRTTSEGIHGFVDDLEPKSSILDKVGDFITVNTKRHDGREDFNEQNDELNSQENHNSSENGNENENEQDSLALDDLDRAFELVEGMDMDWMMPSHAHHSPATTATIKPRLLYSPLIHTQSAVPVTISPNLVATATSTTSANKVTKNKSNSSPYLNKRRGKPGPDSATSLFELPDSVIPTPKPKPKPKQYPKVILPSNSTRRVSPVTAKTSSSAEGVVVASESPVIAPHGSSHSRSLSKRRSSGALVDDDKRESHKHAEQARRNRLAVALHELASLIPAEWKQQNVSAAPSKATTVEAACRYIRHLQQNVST

Relative binding free energy, 0.19 kcal/mol:
GGGTACACGTGTCAGT, GGAATCACGTGGTAAT, GGGGTCACGTGACAAG, TAATTCACGTGTAGGG, GTTGTCACGTGGTTGG, AAGTTCACGTGGGATA, GGCGTCACGTGCGTTG

Relative binding free energy, -0.06 kcal/mol:
GTTGGCACGTGTTCAG

Relative binding free energy, -0.15 kcal/mol:
CTGTGCACGTGGGTGA, AATCGCACGTGGGTGA, GTTGGCACGTGCGACG, TTATGCACGTGTATCT, AAATGCACGTGGGTTT, ATGAGCACGTGTAGGT, GAGAGCACGTGGTTAG, TAGGGCACGTGCAGAT, AGCTGCACGTGCTGGG

Relative binding free energy, 0.43 kcal/mol:
GTCATCACGTGAGGTG

Relative binding free energy, 0.11 kcal/mol:
TGTGACACGTGTTGGA

Relative binding free energy, 0.47 kcal/mol:
GAGTTCACGTGGCTAG

Relative binding free energy, -0.18 kcal/mol:
CCGGGCACGTGGGTGA, ACTTGCACGTGGTTGT, AGAGACACGTGGGGAG, GGGTGCACGTGGTGAC

Relative binding free energy, 0.04 kcal/mol:
CTTTCCACGTGGGTTG, TGGGTCACGTGTCTGG

Relative binding free energy, 0.06 kcal/mol:
GGGTACACGTGGTGAG, TTAAACACGTGTGGCA, CGAGACACGTGAGTGG

Relative binding free energy, 0.03 kcal/mol:
ATGTCCACGTGTTGTT, TTAGACACGTGTCGGG, GGGGACACGTGCAGGC

Relative binding free energy, 0.28 kcal/mol:
GGTTTCACGTGGCTTA

Relative binding free energy, -0.31 kcal/mol:
TATACCACGTGGGGTT

Relative binding free energy, -0.2 kcal/mol:
GGAAGCACGTGTGTAA

Relative binding free energy, 0.32 kcal/mol:
CGTCTCACGTGTATTT, TGCTTCACGTGTGTGT

Relative binding free energy, 0.3 kcal/mol:
TGTGACACGTGAAGGA, GGGGGCACGTGAATAC

Relative binding free energy, 0.12 kcal/mol:
AATTGCACGTGGAATG, TCGTTCACGTGGCATG, TTAAGCACGTGAAAGT, AGGGTCACGTGGTAGT

Relative binding free energy, -0.17 kcal/mol:
AATAGCACGTGTTTGA, TATGGCACGTGGACTG, ATGTCCACGTGGTAGG

Relative binding free energy, 0.01 kcal/mol:
TGGTACACGTGGGAGA, AGGATCACGTGGGTCG, AGAGGCACGTGTTGAA, CAGGACACGTGGGATT

Relative binding free energy, 0.23 kcal/mol:
ATATTCACGTGAGAGG, TATCACACGTGTGAGG, GATAACACGTGTAAGT, TTGCGCACGTGAGGGT

Relative binding free energy, 0.16 kcal/mol:
TGCATCACGTGGTGGT, ATGTTCACGTGCATGA

Relative binding free energy, -0.25 kcal/mol:
ATTGCCACGTGGGCGT

Relative binding free energy, -0.26 kcal/mol:
TTACGCACGTGGGTGT

Relative binding free energy, -0.16 kcal/mol:
AACTGCACGTGGGGAG, CGTTGCACGTGCGTTT

Relative binding free energy, -0.09 kcal/mol:
TGGTGCACGTGCTTAT, TGCTCCACGTGGTGGT, TCTAGCACGTGGTGGT, TGAGGCACGTGTGGCT, CAATGCACGTGGTGGT, GGATGCACGTGGGTCG

Relative binding free energy, 0.27 kcal/mol:
TGGGTCACGTGAGCGA

Relative binding free energy, 0.22 kcal/mol:
AGGGTCACGTGTTATC, TAAAGCACGTGATGAA, TGGGTCACGTGTCAAG

Relative binding free energy, 0.31 kcal/mol:
TGGTACACGTGATTTG, TTATTCACGTGGGGCT, TGGTTCACGTGCATTG

Relative binding free energy, 0.17 kcal/mol:
ACTGGCACGTGAAGGG, AGGGTCACGTGTGTCG, ATGTTCACGTGGGACA, AGGGTCACGTGTCGCG

Relative binding free energy, -0.12 kcal/mol:
GGTGGCACGTGGGTGT, CGGGGCACGTGTCGCG, GTTGGCACGTGGCCTT, TTAGGCACGTGGATTG, GGAGACACGTGCAGGG, GGGGCCACGTGCGTTA

Relative binding free energy, 0.45 kcal/mol:
GGGTTCACGTGAAGCT

Relative binding free energy, 0.09 kcal/mol:
AGAGTCACGTGTTTAA, TATCACACGTGTAGGT, GATAGCACGTGCGTTA, GGTCTCACGTGGCGGT, CTGGTCACGTGTTGAG, CGTGGCACGTGAACGT, GTGCACACGTGTGCGT, GTAGGCACGTGTTAAT, TTTTACACGTGTGCAT, GGGCTCACGTGGAGGT, ATGTGCACGTGTAAGT

Relative binding free energy, -0.27 kcal/mol:
TATAGCACGTGCGCGG, GAAGGCACGTGCGAGG

Relative binding free energy, 0.25 kcal/mol:
GTGTGCACGTGACAAG, GGCTTCACGTGGCGGT

Relative binding free energy, -0.21 kcal/mol:
AGTGGCACGTGGTCAT, TAGGGCACGTGTTCGA

Relative binding free energy, 0.05 kcal/mol:
TTTGCCACGTGATTAG

Relative binding free energy, 0.18 kcal/mol:
TTGGACACGTGATGAG

Relative binding free energy, 0.14 kcal/mol:
ATGTGCACGTGATTTA, ATGGTCACGTGTGGGA, GGATGCACGTGTTAGG, GCAGTCACGTGTTTTT, CTTATCACGTGTGGTA, CGAGTCACGTGTAATG, TGTATCACGTGTTTCT

Relative binding free energy, -0.13 kcal/mol:
CTCGGCACGTGCGTGG, ATACGCACGTGGGTAG

Relative binding free energy, 0.13 kcal/mol:
GTTGGCACGTGAGCGC, TTGGCCACGTGACTGG, GGTCTCACGTGCGTGG, GTCCGCACGTGTGTTT, TAATGCACGTGAAGGT

Relative binding free energy, 0.26 kcal/mol:
CTTGTCACGTGAAGGA, TTTTCCACGTGTAAAT, CTATTCACGTGGTAGG

Relative binding free energy, 0.1 kcal/mol:
GTAGTCACGTGGCGCG, GGTCACACGTGGCGAG, AAGTGCACGTGGAGAG, TGGTACACGTGGGATA, CATGTCACGTGTTTGC, GGAGACACGTGTTTTG, TGGTTCACGTGGCTTA

Relative binding free energy, 0.2 kcal/mol:
TGTTACACGTGATTTT, GGGATCACGTGTCGTT

Relative binding free energy, -0.24 kcal/mol:
CTCGGCACGTGGGGAT

Relative binding free energy, 0.42 kcal/mol:
TAGTTCACGTGAGTAG

Relative binding free energy, -0.05 kcal/mol:
ATTTGCACGTGTCTGA, ATTAGCACGTGGAGTA, AGGACCACGTGGTTGG

Relative binding free energy, 0.21 kcal/mol:
AGTTTCACGTGGGACA, TTTGTCACGTGTTAAT, TGGGTCACGTGTTAGC

Relative binding free energy, 0.15 kcal/mol:
AGTGACACGTGAGTAG, TTAGTCACGTGTTACA, AAGGTCACGTGTGTGG, GTATGCACGTGATTCG, TAAAACACGTGGCGGG, GATGACACGTGGAGTT

Relative binding free energy, -0.14 kcal/mol:
TGGGCCACGTGGGCAG, AGGAGCACGTGGTGGC, TATCGCACGTGGTGTC

Relative binding free energy, -0.23 kcal/mol:
ATGGGCACGTGGTATG

Relative binding free energy, 0.37 kcal/mol:
TTGTTCACGTGTCTTA, GAGTTCACGTGAAGTT

Relative binding free energy, 0.24 kcal/mol:
TGATACACGTGATGGT, TAGGTCACGTGTGATT, TAGTTCACGTGGGAGT

Relative binding free energy, 0.39 kcal/mol:
GAGTTCACGTGATGGC, TGTCTCACGTGAAGCG

Relative binding free energy, -0.11 kcal/mol:
AGGCGCACGTGTTGTA, GGTCGCACGTGCTGTG, GTTCGCACGTGGCGTT

Relative binding free energy, -0.03 kcal/mol:
TTAGACACGTGGCTTA, AAAAGCACGTGCTGGT, CGTGGCACGTGATTAT, GGCTGCACGTGTTGGG

Relative binding free energy, 0.46 kcal/mol:
GGGGTCACGTGAAGTC

Relative binding free energy, -0.02 kcal/mol:
GAGATCACGTGGGGTG, GTACGCACGTGTATTT, TTACGCACGTGTAGGG, ATTGACACGTGGTTAA, TGAGACACGTGGACGG

Relative binding free energy, 0 kcal/mol:
ATTGCCACGTGTCGGG, CTGTGCACGTGTGGCG, TGGGGCACGTGTTCAG, AGTTGCACGTGGCGGA, AGGAGCACGTGTAGTT, TTAGTCACGTGCATGG, AAGCGCACGTGGATGT, AAGGACACGTGTATGG

Relative binding free energy, 0.08 kcal/mol:
TCGGACACGTGGCGTT, TTTGTCACGTGTGTAA, GATGGCACGTGTGGAA, CTAATCACGTGTAGTT, TATGACACGTGCGTTT, TTATCCACGTGATGGG, AGGGTCACGTGGCTTG, TAGGTCACGTGTTTCT, TGGGCCACGTGATTAG

Relative binding free energy, 0.52 kcal/mol:
GGGGTCACGTGAATCT, GCTTTCACGTGAATGG

Relative binding free energy, -0.22 kcal/mol:
AGTGGCACGTGGGGTT

Relative binding free energy, 0.36 kcal/mol:
GGGTTCACGTGGATGA

Relative binding free energy, -0.08 kcal/mol:
CGTTGCACGTGGTGTA, TGGCACACGTGGTGGA, AGTGGCACGTGCGGGA

Relative binding free energy, -0.04 kcal/mol:
GTTGACACGTGCGGGG, GTTCGCACGTGTTATA, TGGTGCACGTGGGTGT, AGTAGCACGTGTTGGA, AGTGTCACGTGGGTAG

Relative binding free energy, -0.01 kcal/mol:
CAGGACACGTGTTTGT, CGTTGCACGTGGTTCA

Relative binding free energy, 0.38 kcal/mol:
TTTCTCACGTGGTGGG

Relative binding free energy, 0.4 kcal/mol:
TGGTTCACGTGAAGAG, GAGGTCACGTGTCGGA

Relative binding free energy, 0.07 kcal/mol:
ATTGGCACGTGACGAG, TCATACACGTGGGATT, AGGGTCACGTGGTGGG, GTGTACACGTGCCGGT

Relative binding free energy, -0.07 kcal/mol:
ATGTGCACGTGCGATG, TGTCCCACGTGGAGTG, TTTAGCACGTGTATCG, ATGTGCACGTGTTTAA

Relative binding free energy, 0.33 kcal/mol:
TGGGCCACGTGAATTT, TTTTTCACGTGGTGCG, TTTTTCACGTGGTTAG

Relative binding free energy, 0.35 kcal/mol:
CATGTCACGTGAAGTA, ATTTTCACGTGTGAGC, GTGTTCACGTGTGTTT, TTTTTCACGTGTTAAA

Relative binding free energy, 0.41 kcal/mol:
AAGTTCACGTGTGAGT

Relative binding free energy, -0.1 kcal/mol:
AGTCGCACGTGCGGGT, ATCTGCACGTGTGTTA

Relative binding free energy, 0.29 kcal/mol:
TAAATCACGTGATGCT, TTGGACACGTGAGATT, GTTAACACGTGTGAAA

Relative binding free energy, 0.02 kcal/mol:
GTTTGCACGTGTTCGC, TTTGTCACGTGGGATA, AGTGGCACGTGTAAGT, CTTGGCACGTGACTGG, TTAATCACGTGATGAG, ATTTACACGTGGAGAG, GGCAACACGTGTGTGG, CGTCTCACGTGGAGGG
